Laboratory results reported in article PMC12040169 (PLOS Biology, 2025).
The list shows a part of the results.

What follows are molecules tested on T1, C. trachomatis L2/434/Bu expressing GFP (CTL2-GFP). Settings: total inclusion area; 28.5 h, 10 µM; inhibitor.
T1 construct: L2/434/Bu GFP intracellular growth in HeLa cells
Set-up: species or system HeLa; C. trachomatis total inclusion area by high-content imaging, normalised to DMSO
Outline: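 Following bulk GFP and resorufin fluorescence reads, infected cells were fixed, Hoechst-stained and imaged on a high-content platform. Inclusion total area and number per well served as growth proxies; nuclei counts indicated host viability. MICs were derived as for the fluorescence assay.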
With Cc1ccc2oc(C(=O)Nc3sc4c(c3C(=O)NCC3CCCO3)CCC4)c(C)c2c1 (centres unmarked) [CBK266282] the “% of control remaining” value was 133.655. Cc1ncccc1C(=O)N1CCC(c2cc3ccccc3cn2)CC1 [CBK284854] was tested, and the “% of control remaining” value was 57.7136. With Cc1nnc(N2C(=O)c3oc4ccc(Cl)cc4c(=O)c3C2c2cccnc2)s1 (centres unmarked) [CBK267010] the “% of control remaining” value was 99.6035. O=C(CSc1ncc(C(=O)O)n1-c1ccc(F)cc1)NCCc1ccc(F)cc1 [CBK297513] was tested, and the “% of control remaining” value was 113.068. For Cc1ccc(NC(=O)c2ccccc2OCC(=O)NC23CC4CC(CC(C4)C2)C3)cc1Cl [CBK265091], the “% of control remaining” value was 129.358. In the case of Cc1ccc2oc([C@H]3CN(C(=O)C(C)(C)NC(=O)OC(C)(C)C)C[C@@H]3C(=O)O)cc2c1 [CBK001600], the “% of control remaining” value is reported as 62.7807. With O=C(N/N=C/C1C=Nc2ccccc21)c1cc([N+](=O)[O-])cc([N+](=O)[O-])c1 (centres unmarked) [CBK261485] the “% of control remaining” value was 87.7562. In the case of Cc1c(C)n(Cc2ccccc2)c2ccc(C(=O)OCCN3CCOCC3)cc12 [CBK262427], the “% of control remaining” value is reported as 100.895. With Cc1ccc(OCC(O)CN2CCN(c3ccccn3)CC2)cc1C (centres unmarked) [CBK058884] the “% of control remaining” value was 66.6473. CN1CCC(N2CCN(C(=O)Nc3ccc4c(c3)OCCO4)CC2)CC1 [CBK155898] was tested, and the “% of control remaining” value was 73.0895. Cc1ccc(SCCCn2ccnc2)cc1 [CBK269733C] was tested, and the “% of control remaining” value was 72.2046. In the case of CS(=O)(=O)Nc1cc(-c2noc([C@@H]3CCCN3C3CCC3)n2)ccn1 [CBK288889], the “% of control remaining” value is reported as 108.062. CC(=O)N1CCc2sccc2C1c1ccc(NC(=O)c2ccc(F)cc2)cc1 (centres unmarked) [CBK286434] was tested, and the “% of control remaining” value was 86.1038. CC(C)(C)C1=CC2=NC3(CCCC3)[C@@H]3C[C@@H](O)[C@@H](O)[C@@H]3N2O1 [CBK303245] was tested, and the “% of control remaining” value was 90.3218. In the case of COc1ccc(CNC(=O)C(=O)NCc2ccccc2)cc1 [CBK262158], the “% of control remaining” value is reported as 102.685. O=C(NCc1ccco1)c1ccc2c(=O)n(-c3ccccc3)c(=O)[nH]c2c1 [CBK287823] was tested, and the “% of control remaining” value was 86.142. With O=C(O)Cc1cc2c(n1Cc1ccc(F)cc1)CCCC2=O [CBK283866] the “% of control remaining” value was 85.5762. O=c1[nH]nc2c(SCc3ccccc3)nccn12 [CBK288440] was tested, and the “% of control remaining” value was 70.1157. O=C(CSc1ccc(Cl)cc1)Nc1ccc(S(=O)(=O)N2CCOCC2)cc1 [CBK262723] was tested, and the “% of control remaining” value was 93.0246. For O=C(NCc1cccs1)c1ccc(-n2ccnc2)c(-n2cccc2)c1 [CBK285366], the “% of control remaining” value was 91.3324. With CCCc1cc(C(=O)OC)c(NC(=O)c2c(C)noc2C)s1 [CBK058088] the “% of control remaining” value was 23.2022. With COc1cc(OC)c2nc(C(F)(F)F)cc(Cl)c2c1 [CBK006518] the “% of control remaining” value was 30.7325. In the case of O=S(=O)(c1ccc(-c2csc(-c3ccccc3)n2)cc1)N1CCCCCC1 [CBK265504], the “% of control remaining” value is reported as 91.93. With Cc1nc2cccnc2n1C1CCN(C(=O)NCc2ccccc2)CC1 [CBK282291] the “% of control remaining” value was 85.8627. With O=C(Nc1ccccc1C(=O)O)c1ccc(Cl)c(S(=O)(=O)N2CCCCC2)c1 [CBK261763] the “% of control remaining” value was 91.8625. CN1c2ccccc2C(c2ccccc2)=NS1(=O)=O [CBK022873] was tested, and the “% of control remaining” value was 99.5885. O=C(c1ccco1)N1CCN(C(=O)c2c(F)cccc2F)CC1 [CBK144479] was tested, and the “% of control remaining” value was 93.2832. For CCOC(=O)CN1CC(O)CC1c1cccc(C(F)(F)F)c1 (centres unmarked) [CBK304169], the “% of control remaining” value was 100.46. CCc1cc(OCc2ccc(Cn3nc(NC(C)=O)c4ccccc43)cc2)c2ccccc2n1 [CBK048402] was tested, and the “% of control remaining” value was 90.5653. Cn1nc(-c2ccccc2)cc1[C@H]1CN2CC[C@H]1C[C@@H]2CNC(=O)NCc1ccccc1 [CBK289098] was tested, and the “% of control remaining” value was 88.7926. For Cn1cc(-c2ncc(OCc3ccc4c(c3)OCO4)nc2N)cn1 [CBK145168], the “% of control remaining” value was 108.596. In the case of O=C(c1ccccc1F)N1CCC(n2c(=O)oc3ccccc32)CC1 [CBK284346], the “% of control remaining” value is reported as 66.6316. Cc1ccnc(SCc2ccc(F)cc2Cl)n1 [CBK270290] was tested, and the “% of control remaining” value was 70.3534. COc1ccccc1CC(=O)N1CCN(Cc2ccco2)C[C@@H]1C [CBK285481] was tested, and the “% of control remaining” value was 71.7893. With OCCN1CC2(CCN(CC3COc4ccccc4O3)CC2)c2ccccc21 (centres unmarked) [CBK143955] the “% of control remaining” value was 116.082. For COC(=O)c1c(NC(=O)COc2ccc(Br)cc2)sc2c1CCC2 [CBK263369], the “% of control remaining” value was 106.944. With COC(=O)CN1C(=O)S/C(=C/c2cc(C)n(-c3ccc4ncccc4c3)c2C)C1=O [CBK265275] the “% of control remaining” value was 99.5737. With Cc1ccc2oc(C(=O)N(C)Cc3c(C)nn(C)c3C)c(C)c2c1 [CBK281631] the “% of control remaining” value was 99.6684. OCc1c(-c2ccc(F)cc2)[nH]c2ncccc12 [CBK283328] was tested, and the “% of control remaining” value was 81.0914. With Cc1cccc(C)c1NC(=O)CN1CCC(Oc2cncc(OCCN3CCOCC3)n2)C1 (centres unmarked) [CBK084489] the “% of control remaining” value was 90.8726. O=C(O)C1CCC1C(=O)N1CCN(c2nc3ccc(Cl)cc3s2)CC1 (centres unmarked) [CBK057108] was tested, and the “% of control remaining” value was 39.6044. In the case of Brc1ccc(-n2cnnn2)cc1 [CBK027696], the “% of control remaining” value is reported as 13.9013. For Cc1nc(C)c(C(=O)Nc2c(C)noc2C)s1 [CBK200313], the “% of control remaining” value was 122.947. In the case of COc1ccc(-c2nc(NC(=O)C3CCC(OC)CC3)cnc2-c2cccc(C)c2)cn1 (centres unmarked) [CBK036813], the “% of control remaining” value is reported as 102.896. In the case of O=C(O)C(Cc1ccccc1)NS(=O)(=O)c1ccc(I)cc1 (centres unmarked) [CBK268807], the “% of control remaining” value is reported as 108.083. In the case of O=C1CNC(=O)C2(C/C=C/C[C@H]3COCC[C@H]3N1)CCN(CCOc1ccccc1)CC2 [CBK292077], the “% of control remaining” value is reported as 114.559. With OC1CCN(Cc2c(-c3cccs3)[nH]c3ncccc23)CC1 [CBK283318] the “% of control remaining” value was 105.171. In the case of COc1ccc(Cl)cc1C(=O)Nc1cnn(CCCC(=O)O)c1 [CBK269855], the “% of control remaining” value is reported as 75.3838. With CCc1nc(C(C)NCC(=O)Nc2cc(C)nn2C)cs1 (centres unmarked) [CBK305118] the “% of control remaining” value was 107.774. Cc1ccc(CNc2cc(C)ccn2)cc1 [CBK005419] was tested, and the “% of control remaining” value was 54.939. With CN(C)C(CNc1cncc(-c2cccc(Cl)c2)n1)c1cccnc1 (centres unmarked) [CBK037247] the “% of control remaining” value was 67.119. With CCc1ccc(C(=O)C(C)OC(=O)c2nc3nc(C)cc(C)n3n2)cc1 (centres unmarked) [CBK305023] the “% of control remaining” value was 59.906. With Cc1cc(C)nc(N2CCC(CC(=O)NCCOc3cccc(F)c3)CC2)n1 [CBK285996] the “% of control remaining” value was 107.357. For O=C(Oc1cccc2cccnc12)c1cccc(S(=O)(=O)Oc2cccc3cccnc23)c1 [CBK264545], the “% of control remaining” value was 107.058. With Cc1ccc(N2CCCN(C(=O)COc3ccccc3F)CC2)nn1 [CBK305261] the “% of control remaining” value was 29.3648. For Cc1ccc(-n2c(=O)[nH]c3c(C(=O)Nc4ccccc4)cn(C)c3c2=O)cc1 [CBK287651], the “% of control remaining” value was 112.015. CCn1c(=O)n(CC(=O)N(C(C)C)C(C)C)c2cccnc21 [CBK283943] was tested, and the “% of control remaining” value was 84.0031. With CCN(Cc1ccco1)C(=O)NC1CCCc2c1cnn2CCO (centres unmarked) [CBK305767] the “% of control remaining” value was 100.958. In the case of O=S(=O)(/C=C/c1ccccc1)Nc1cccc2cc[nH]c12 [CBK155788], the “% of control remaining” value is reported as 88.6908. In the case of Cc1c(Cl)cccc1S(=O)(=O)Nc1nc(CSc2ccccn2)ns1 [CBK200054], the “% of control remaining” value is reported as 81.8465. With Cc1nn(C(C)CC(=O)NCCN2CCC(C)CC2)c(C)c1Cl (centres unmarked) [CBK281558] the “% of control remaining” value was 91.8694. With CC1CC(C)CN(CCCNC(=O)c2cc(-c3cccs3)no2)C1 (centres unmarked) [CBK281949] the “% of control remaining” value was 113.145. For c1ccc(Cn2cc(-c3nccnc3OCCn3ccnc3)cn2)cc1 [CBK107102], the “% of control remaining” value was 77.7155. In the case of CC(=O)Nc1cc2ccccc2nc1C1CCN(C(=O)C(C)C)CC1 [CBK285259], the “% of control remaining” value is reported as 80.926. CC(C)(CO)CNc1cc(Cl)nc2ccnn12 [CBK037200] was tested, and the “% of control remaining” value was 96.85. With COc1cccc(C(=O)Nc2ccc(O)c(C)c2)c1 [CBK264413] the “% of control remaining” value was 110.155. In the case of COc1ccc(CCNC(=S)NC2CC3CCC2C3)cc1OC (centres unmarked) [CBK015410], the “% of control remaining” value is reported as 71.9386. In the case of Cc1cc(-c2ccc([N+](=O)[O-])cc2)nc2ccc3ccccc3c12 [CBK263253C], the “% of control remaining” value is reported as 62.4051. For Cc1[nH]c2ccccc2c1C(=O)CSc1nc2scc(-c3ccco3)c2c(=O)n1-c1ccccc1 [CBK267933], the “% of control remaining” value was 114.172. O=C1NC2CCCCC2NC1CC(=O)N1CCN(Cc2ccccc2)CC1 (centres unmarked) [CBK269484] was tested, and the “% of control remaining” value was 84.2892. In the case of O=S(=O)(c1ccc(-n2cnc(Cl)c2Cl)cc1)N1CCCN(Cc2ccc3cccc(O)c3n2)CC1 [CBK063088], the “% of control remaining” value is reported as 66.3465. For CCCCN1CC(C(=O)OCC)=C(O)C1=O [CBK028774], the “% of control remaining” value was 55.2687. Cc1ccc(S(N)(=O)=O)cc1C(=O)Nc1nncs1 [CBK050456] was tested, and the “% of control remaining” value was 55.9545. With Nc1nccc2c1ncn2[C@H]1C[C@@H](O)[C@@H](CO)O1 [CBK201157] the “% of control remaining” value was 106.27. For Cc1ccc(C(=O)Nc2cccc(-c3ccc4nnc(C)n4n3)c2)cc1 [CBK287683], the “% of control remaining” value was 56.1119. In the case of Cc1c(NC(=O)Nc2ccc(Cl)cc2)sc(=S)n1C [CBK027495], the “% of control remaining” value is reported as 64.8352. For Cc1c(C(C)NCCc2nnc[nH]2)cnn1-c1ccc(C#N)cc1 (centres unmarked) [CBK304063], the “% of control remaining” value was 39.3385. In the case of CC1CCc2c(sc(NC(=O)c3ccncc3)c2C(N)=O)C1 (centres unmarked) [CBK288530], the “% of control remaining” value is reported as 108.085. CC1CCc2c(sc3nc(SCC(=O)NC(c4ccccc4)c4ccccc4)nc(N)c23)C1 (centres unmarked) [CBK267274] was tested, and the “% of control remaining” value was 102.045. CCCS(=O)(=O)N1CCC(C(=O)NCc2ccc(Cl)cc2Cl)CC1 [CBK305559] was tested, and the “% of control remaining” value was 37.2718.
